The values that follow come from PMC4947186.

The chains behind the UniProt entries cited, without tags or fusion partners.
UniProt Q13547: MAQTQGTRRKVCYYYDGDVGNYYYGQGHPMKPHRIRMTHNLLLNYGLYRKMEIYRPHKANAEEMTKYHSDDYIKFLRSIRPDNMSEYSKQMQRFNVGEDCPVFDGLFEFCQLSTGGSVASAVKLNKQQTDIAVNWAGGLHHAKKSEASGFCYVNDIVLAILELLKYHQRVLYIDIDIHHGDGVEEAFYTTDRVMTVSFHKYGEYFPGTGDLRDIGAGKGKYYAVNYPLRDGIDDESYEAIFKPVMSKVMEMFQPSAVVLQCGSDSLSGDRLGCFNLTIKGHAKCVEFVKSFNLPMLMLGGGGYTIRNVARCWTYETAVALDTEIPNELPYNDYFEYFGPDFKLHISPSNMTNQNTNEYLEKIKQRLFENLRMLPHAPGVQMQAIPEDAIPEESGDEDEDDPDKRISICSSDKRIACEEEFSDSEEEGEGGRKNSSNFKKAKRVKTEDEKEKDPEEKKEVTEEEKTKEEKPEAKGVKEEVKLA
UniProt P49792: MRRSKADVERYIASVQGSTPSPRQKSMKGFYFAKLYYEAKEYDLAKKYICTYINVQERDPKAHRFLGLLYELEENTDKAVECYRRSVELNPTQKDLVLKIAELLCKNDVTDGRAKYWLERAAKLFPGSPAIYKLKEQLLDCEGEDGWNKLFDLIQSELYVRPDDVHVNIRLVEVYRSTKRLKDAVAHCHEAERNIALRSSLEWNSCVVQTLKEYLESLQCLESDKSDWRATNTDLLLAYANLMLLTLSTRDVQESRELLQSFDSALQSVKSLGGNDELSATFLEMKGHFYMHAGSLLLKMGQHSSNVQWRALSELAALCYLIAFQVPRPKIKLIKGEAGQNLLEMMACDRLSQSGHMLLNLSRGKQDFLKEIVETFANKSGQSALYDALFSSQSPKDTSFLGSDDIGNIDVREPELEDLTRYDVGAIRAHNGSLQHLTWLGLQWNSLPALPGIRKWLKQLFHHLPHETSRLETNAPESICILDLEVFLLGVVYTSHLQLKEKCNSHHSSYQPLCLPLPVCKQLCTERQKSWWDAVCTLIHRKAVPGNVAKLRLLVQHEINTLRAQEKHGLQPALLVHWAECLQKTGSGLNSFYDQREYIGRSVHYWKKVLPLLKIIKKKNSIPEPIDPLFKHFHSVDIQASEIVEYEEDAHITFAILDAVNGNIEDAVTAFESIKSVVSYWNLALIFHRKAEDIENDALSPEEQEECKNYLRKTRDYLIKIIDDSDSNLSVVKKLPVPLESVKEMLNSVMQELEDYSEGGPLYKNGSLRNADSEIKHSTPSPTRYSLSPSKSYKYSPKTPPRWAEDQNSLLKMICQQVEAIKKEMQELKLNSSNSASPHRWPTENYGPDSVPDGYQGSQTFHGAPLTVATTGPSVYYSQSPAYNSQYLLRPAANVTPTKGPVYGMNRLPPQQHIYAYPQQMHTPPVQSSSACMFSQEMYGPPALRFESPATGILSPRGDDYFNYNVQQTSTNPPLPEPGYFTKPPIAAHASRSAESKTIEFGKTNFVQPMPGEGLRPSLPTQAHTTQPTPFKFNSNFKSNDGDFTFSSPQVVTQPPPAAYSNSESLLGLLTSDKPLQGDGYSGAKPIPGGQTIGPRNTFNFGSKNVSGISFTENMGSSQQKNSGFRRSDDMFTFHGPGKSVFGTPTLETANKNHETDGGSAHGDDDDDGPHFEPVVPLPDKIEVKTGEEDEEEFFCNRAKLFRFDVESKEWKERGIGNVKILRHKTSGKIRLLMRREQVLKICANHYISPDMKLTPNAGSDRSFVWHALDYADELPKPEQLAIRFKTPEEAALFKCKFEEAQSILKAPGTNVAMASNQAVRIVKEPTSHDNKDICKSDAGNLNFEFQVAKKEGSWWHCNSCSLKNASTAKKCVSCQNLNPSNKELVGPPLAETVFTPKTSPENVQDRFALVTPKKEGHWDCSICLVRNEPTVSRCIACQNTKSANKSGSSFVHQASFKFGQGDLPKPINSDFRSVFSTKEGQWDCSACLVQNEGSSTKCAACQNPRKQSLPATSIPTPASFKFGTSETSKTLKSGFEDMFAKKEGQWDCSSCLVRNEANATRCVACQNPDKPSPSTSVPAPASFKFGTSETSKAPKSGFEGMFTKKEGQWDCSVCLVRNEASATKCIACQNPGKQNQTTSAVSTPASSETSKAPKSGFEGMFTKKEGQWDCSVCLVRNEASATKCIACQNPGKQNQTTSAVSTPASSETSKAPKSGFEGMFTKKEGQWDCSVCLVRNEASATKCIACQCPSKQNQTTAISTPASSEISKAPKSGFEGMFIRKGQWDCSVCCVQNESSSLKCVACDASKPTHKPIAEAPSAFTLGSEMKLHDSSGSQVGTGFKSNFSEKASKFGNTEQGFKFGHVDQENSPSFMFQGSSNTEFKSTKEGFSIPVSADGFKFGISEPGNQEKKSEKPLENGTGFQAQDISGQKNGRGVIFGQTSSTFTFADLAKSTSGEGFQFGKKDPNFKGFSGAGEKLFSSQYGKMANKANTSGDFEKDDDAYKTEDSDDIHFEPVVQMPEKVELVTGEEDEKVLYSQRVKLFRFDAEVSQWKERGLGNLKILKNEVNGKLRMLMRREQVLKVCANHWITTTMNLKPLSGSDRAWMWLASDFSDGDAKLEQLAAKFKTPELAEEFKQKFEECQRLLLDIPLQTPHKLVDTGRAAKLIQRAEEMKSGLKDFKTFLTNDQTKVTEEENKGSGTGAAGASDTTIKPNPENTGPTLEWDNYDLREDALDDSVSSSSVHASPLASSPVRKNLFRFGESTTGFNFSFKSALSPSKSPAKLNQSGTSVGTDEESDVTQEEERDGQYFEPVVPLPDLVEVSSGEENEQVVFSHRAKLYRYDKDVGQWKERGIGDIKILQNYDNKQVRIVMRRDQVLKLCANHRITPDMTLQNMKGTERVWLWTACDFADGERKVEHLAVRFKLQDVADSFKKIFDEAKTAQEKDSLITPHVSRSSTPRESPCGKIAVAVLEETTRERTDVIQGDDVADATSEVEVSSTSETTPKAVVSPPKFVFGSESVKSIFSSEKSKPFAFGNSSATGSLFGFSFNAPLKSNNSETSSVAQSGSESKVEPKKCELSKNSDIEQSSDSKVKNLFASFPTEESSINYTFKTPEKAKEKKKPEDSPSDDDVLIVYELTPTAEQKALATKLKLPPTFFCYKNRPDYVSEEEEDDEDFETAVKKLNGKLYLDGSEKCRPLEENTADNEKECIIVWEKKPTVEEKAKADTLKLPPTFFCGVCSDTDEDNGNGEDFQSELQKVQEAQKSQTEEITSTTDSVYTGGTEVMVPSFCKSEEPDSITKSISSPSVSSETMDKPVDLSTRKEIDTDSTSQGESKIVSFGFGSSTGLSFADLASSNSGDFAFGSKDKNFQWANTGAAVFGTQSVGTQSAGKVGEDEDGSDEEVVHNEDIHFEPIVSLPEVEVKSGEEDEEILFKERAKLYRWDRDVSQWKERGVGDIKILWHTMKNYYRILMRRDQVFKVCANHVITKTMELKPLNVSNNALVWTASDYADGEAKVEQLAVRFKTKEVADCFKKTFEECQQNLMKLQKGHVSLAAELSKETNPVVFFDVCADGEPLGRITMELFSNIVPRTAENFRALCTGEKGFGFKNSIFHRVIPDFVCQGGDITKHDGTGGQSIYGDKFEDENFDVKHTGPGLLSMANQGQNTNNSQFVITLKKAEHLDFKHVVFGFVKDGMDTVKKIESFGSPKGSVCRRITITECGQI

Residue numbers refer to the chain shown, from its start. Names may count otherwise. These are yes or no findings as the source states them, for the method shown. In cells and extracts the contact can be indirect. Some entries that bind do so weakly or less than the wild type. Tags and fused reporters may be left off the sequences shown.

In assay [1] the target is T1, flag-SHP T58A mutant (phosphorylation-defective), expressed in HepG2 cells (mouse) (UniProt Q62227).
T1 sequence: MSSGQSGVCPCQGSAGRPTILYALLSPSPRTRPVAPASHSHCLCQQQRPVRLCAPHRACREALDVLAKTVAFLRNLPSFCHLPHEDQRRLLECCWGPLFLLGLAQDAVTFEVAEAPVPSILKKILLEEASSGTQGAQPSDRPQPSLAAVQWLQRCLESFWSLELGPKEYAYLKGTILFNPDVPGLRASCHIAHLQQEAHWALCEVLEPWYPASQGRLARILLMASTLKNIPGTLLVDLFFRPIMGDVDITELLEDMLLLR
As to the kind of experiment: co-IP; flag-SHP expressed in HepG2 cells precipitated by M2 antibody, RanBP2 detected by IB (Fig. 1b); Fig. 5a: cells treated with 50 uM CDCA for 15 min.

In assay [2] the target is T2, flag-SHP (Small Heterodimer Partner, NR0B2), wild type, expressed in HepG2 cells (mouse) (UniProt Q62227).
T2 sequence: T1 sequence with A58T
Described as above.

Assay [3] concerns the target HDAC1, endogenous in HepG2 cells (human (endogenous in HepG2)) (UniProt Q13547). The experiment in a line: co-IP; flag-SHP WT or K68R expressed in HepG2 cells treated with 50 uM CDCA for 30 min; LSD1, HDAC1 or mSin3A immunoprecipitated with their antibodies, flag-SHP detected by M2 antibody.
Assay [4] deals with T3, mSin3A, endogenous in HepG2 cells (human (endogenous in HepG2)) (UniProt Q96ST3).
T3 sequence: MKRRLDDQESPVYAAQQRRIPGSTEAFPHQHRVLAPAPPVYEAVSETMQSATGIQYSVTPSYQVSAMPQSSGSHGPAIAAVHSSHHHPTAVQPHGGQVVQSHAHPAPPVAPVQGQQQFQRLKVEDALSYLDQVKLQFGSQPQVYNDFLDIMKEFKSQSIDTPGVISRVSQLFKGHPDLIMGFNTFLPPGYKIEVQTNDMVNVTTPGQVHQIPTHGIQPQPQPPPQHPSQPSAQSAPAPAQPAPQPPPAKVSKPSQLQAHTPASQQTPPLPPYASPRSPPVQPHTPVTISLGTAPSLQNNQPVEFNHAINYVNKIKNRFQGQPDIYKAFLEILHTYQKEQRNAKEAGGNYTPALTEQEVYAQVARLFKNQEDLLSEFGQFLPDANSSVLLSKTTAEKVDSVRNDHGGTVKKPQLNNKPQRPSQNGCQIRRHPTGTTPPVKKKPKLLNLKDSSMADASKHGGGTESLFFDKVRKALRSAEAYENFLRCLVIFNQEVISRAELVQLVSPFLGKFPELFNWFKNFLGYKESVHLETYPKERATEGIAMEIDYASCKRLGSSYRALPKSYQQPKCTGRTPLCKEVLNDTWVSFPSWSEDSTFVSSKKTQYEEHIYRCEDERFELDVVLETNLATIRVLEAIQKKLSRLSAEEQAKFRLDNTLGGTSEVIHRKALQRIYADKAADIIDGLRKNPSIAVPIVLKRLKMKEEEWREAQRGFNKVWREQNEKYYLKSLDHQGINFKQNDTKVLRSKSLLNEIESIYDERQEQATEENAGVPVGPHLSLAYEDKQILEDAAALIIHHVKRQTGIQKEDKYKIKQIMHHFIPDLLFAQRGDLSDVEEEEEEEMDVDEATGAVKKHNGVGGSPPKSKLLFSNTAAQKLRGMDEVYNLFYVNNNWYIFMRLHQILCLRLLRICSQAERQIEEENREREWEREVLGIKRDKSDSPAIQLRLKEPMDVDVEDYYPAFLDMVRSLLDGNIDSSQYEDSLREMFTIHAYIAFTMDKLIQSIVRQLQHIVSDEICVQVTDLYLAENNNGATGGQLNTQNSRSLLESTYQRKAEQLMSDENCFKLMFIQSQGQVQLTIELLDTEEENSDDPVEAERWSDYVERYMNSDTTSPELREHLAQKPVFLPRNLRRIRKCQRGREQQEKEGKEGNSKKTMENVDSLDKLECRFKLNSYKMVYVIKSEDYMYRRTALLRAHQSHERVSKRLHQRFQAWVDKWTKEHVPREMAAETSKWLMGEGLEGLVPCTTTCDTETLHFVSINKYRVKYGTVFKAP
The description is as above.

In the case of “Ran-binding protein 2 (RanBP2/Nup358), endogenous in HepG2 cells (from UniProt P49792 1-3224)”, the binding entry in assay [1] was “no binding”; in assay [2], “binds”.

B1: flag-SHP (Small Heterodimer Partner, NR0B2), wild type, expressed in HepG2 cells (protein, UniProt Q62227 1-260)
chain: T1 sequence with A58T
Turning to B1, the binding entry in assay [3] and in assay [4] was “binds” each time.

B2: flag-SHP K68R mutant (SUMO-defective), expressed in HepG2 cells (protein, UniProt Q62227 1-260)
chain: T1 sequence with A58T, K68R
B2: the binding entry in assay [3] and in assay [4] was “no binding” in each case.
